Laboratory results taken from paper PMC4336329 (PLoS ONE, 2015).
The whole screen tested about 310,000 compounds, of which about 2,200 (0.71%) showed an effect of 50% or more. Effects have a minus sign here. This is one part of the list.

Target: human ether-à-go-go-related gene (hERG) potassium channel (human, UniProt Q12809)
Assay: primary screen, population patch clamp on CHO cells stably expressing hERG

Chain of human ether-à-go-go-related gene (hERG) potassium channel (Q12809 whole entry, looked up): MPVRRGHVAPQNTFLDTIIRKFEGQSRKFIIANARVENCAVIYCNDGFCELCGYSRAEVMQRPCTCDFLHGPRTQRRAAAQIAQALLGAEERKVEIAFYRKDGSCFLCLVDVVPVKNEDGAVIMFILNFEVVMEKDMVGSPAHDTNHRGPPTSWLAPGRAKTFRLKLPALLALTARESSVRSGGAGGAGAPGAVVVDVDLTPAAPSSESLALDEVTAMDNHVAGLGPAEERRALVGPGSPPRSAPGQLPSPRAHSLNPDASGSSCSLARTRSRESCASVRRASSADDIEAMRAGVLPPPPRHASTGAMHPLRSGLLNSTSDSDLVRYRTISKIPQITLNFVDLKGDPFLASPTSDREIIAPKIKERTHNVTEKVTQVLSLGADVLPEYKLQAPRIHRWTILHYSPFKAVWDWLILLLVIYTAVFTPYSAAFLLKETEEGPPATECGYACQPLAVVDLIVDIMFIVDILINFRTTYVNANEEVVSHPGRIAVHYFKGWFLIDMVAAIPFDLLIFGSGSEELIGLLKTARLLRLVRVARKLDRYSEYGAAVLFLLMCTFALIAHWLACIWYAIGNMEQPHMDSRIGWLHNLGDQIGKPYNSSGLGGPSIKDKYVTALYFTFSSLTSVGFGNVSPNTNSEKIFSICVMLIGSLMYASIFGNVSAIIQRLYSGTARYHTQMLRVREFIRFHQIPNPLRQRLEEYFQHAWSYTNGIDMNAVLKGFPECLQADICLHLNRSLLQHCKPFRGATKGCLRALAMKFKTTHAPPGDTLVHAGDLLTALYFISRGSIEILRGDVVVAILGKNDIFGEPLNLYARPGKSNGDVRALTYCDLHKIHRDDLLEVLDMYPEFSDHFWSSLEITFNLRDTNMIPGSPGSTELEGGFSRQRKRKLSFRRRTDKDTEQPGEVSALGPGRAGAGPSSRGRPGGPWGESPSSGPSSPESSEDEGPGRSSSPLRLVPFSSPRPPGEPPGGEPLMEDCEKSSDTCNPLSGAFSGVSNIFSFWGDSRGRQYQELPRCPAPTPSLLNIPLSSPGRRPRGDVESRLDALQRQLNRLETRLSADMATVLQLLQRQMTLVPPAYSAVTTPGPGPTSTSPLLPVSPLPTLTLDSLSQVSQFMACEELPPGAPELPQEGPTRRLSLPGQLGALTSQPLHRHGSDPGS

Compound	hERG current change (%, negative = inhibition) at 1uM [%]
CCC(=O)c1ccc(OC(=O)N(C)c2ccccc2)cc1	14.5
CC(C)(C)c1ccc(OCCCNC2CCCC2)cc1.O=C(O)C(=O)O	-12.8
CCOC(=O)C1CCN(C(=O)COC(=O)CCOc2ccc(C)cc2)CC1	4.66
CCOC(=O)c1ccc2nc(C)cc(Nc3cccc(C(=O)O)c3)c2c1	12.8
COc1ccccc1N1CCN(C2=NS(=O)(=O)c3ccccc32)CC1	-2.1
N#Cc1ccc(C(=O)CSc2n[nH]c(=O)n2Cc2ccco2)cc1	-6.45
O=C(NNc1ccc([N+](=O)[O-])cc1[N+](=O)[O-])c1ccco1	9.64
CC1Cc2ccccc2N1C(=S)NC(=O)C1(C)CC1(Cl)Cl (stereo not shown)	6.81
CN1CCN(NC(=O)c2cc(-c3ccc(Cl)s3)nc3ccccc23)CC1	11.9
CCOC(=O)N1CCN(C(=O)Nc2cccc3ccccc23)CC1	7.5
Cc1nc2c(-c3ccc(F)cc3)c(C)nn2c(C)c1CCC(=O)NC(C)CCc1ccco1 (stereo not shown)	-26.8
CCN(CC)C(=O)c1sc(NC(=O)c2ccc(OC)c([N+](=O)[O-])c2)c(C#N)c1C	10.5
Cc1cccc(N2C(=O)c3ccc(C(=O)Nc4c[nH]c(=O)[nH]c4=O)cc3C2=O)c1	15.7
COc1ccc(/C=N/n2cnnc2)cc1Oc1nc(Cl)ncc1F	1.77
CS(=O)(=O)N(Cc1ccccc1)c1ccccc1C(=O)O	16.7
CNC(=O)CN(c1ccc(C23CC4CC(CC(C4)C2)C3)cc1)S(C)(=O)=O	7.92
Cc1ccc(Oc2ccccc2/C=N/O)cc1	5.4
CCCNC(=O)c1c(N)n(-c2ccc3c(c2)OCO3)c2nc3ccccc3nc12	16.2
O=S(=O)(NCc1ccccc1Cl)c1cccs1	10.1
CN(C)/C=C(\C#N)S(=O)(=O)c1ccccc1	7.33

Compound	hERG current change (%, negative = inhibition) at 1uM [%]
Cc1cc(Nc2ccccc2Cl)nc(-c2ccccc2O)n1	12.6
COc1ccc(NC(=O)c2cc(-c3ccco3)on2)c(OC)c1	19.4
CCN1CC(CN(C)Cc2cn(-c3ccc(C)cc3)nc2-c2cccc(C)c2)CC1=O (stereo not shown)	-3.48
Cn1c(=O)c2sccc2n2c(CCCC(=O)N3CCCCC3)nnc12	12.7
CN(C)C(CNC(=O)c1ccccc1C(F)(F)F)c1ccco1 (stereo not shown)	11.4
CCN1C(=O)CC(N2CCC(C(=O)N3CCOCC3)CC2)C1=O (stereo not shown)	7.55
O=C(O)C1C2C=CC(CC2)C1C(=O)O (stereo not shown)	15
CCOc1cnc(C(=O)NNC(=O)c2ccccc2Br)o1	11.7
CN(C)/C=C1\C=C(c2ccccc2)OC1=O	15.4
Cc1cc(NC(=O)Cc2ccccc2)no1	11
COCCn1c(N)c(N(Cc2ccccc2)C(=O)c2ccc(C#N)cc2)c(=O)[nH]c1=O	1.98
O=C(Cc1ccc(-c2ccccc2)cc1)NNC(=S)NCc1ccco1	10.7
Nc1nc(NCc2ccccc2)n(-c2ccccc2)n1	16.4
CCOC(=O)C1=C(C)NC(C)=C(C(=O)OC)C1c1cccc([N+](=O)[O-])c1 (stereo not shown)	-0.602
Cc1ccc(-c2nnn(CC(=O)N(c3ccc(F)cc3)C(C(=O)NC3CCCC3)c3ccco3)n2)o1 (stereo not shown)	15.7
CC(=O)NC1C(Oc2ccc3c(C)cc(=O)oc3c2)OC(COC(C)=O)C(OC(C)=O)C1OC(C)=O (stereo not shown)	16.1
Cc1cc(C(=O)Nc2cccc(C(=O)O)c2)c(C)o1	-6.6
Cc1cc(N2CCOCC2)nc(SCC(=O)c2ccc(Cl)cc2)n1	10.9
Cc1cc(C)cc(OCC(=O)Nc2ccc(N3CCCC3)cc2)c1	14.4
COc1ccc(-c2cc(C(F)(F)F)nc(SCCC(=O)N3CCN4CCCC4C3)n2)cc1 (stereo not shown)	3.75

Compound	hERG current change (%, negative = inhibition) at 1uM [%]
C#CCn1c(CCNC(=O)c2ccco2)nc2ccccc21	14.7
CN1N=C(C(=O)N2CCc3c([nH]c4ccccc34)C2c2c(F)cccc2Cl)CCC1=O (stereo not shown)	-20.5
O=c1c2ccccc2ncn1-c1ccc(Cl)cc1Cl	11.9
O=C(NCCc1ccccc1)c1cc(=O)[nH]c2ccccc12	1.99
Cc1ccc(NC(=O)CSc2nnc(CNC(=O)c3cccs3)o2)cc1	14.5
CC1Sc2ccc(C(=O)N3CCCC(C(F)(F)F)C3)cc2NC1=O (stereo not shown)	2.77
CC1=Nc2cc(C(=O)NCc3ccco3)ccc2Sc2ccc(C)cc21	-4.78
Cc1cc(C)n2nnnc2n1	14.8
CC(C)(C)c1csc(NC(=O)Cn2cnc3ccccc3c2=O)n1	0.854
OCC[C@H]1C[C@H](O)[C@@H](O)[C@]2(CCc3ccccc3O2)O1	10.2
COc1cccc(-c2nnc(SCC(=O)OC(C)C)n2N)c1	-2.38
Cc1ccc(C(=O)N/C(=C\c2sccc2C)C(=O)NCc2ccco2)cc1	11.7
O=C(NC(=S)Nc1ccc2oc(=O)ccc2c1)c1ccccc1F	11.2
c1ccc(CN2CCN(Cc3c[nH]c4ccccc34)CC2)cc1	15.3
COc1ccc(CN2CCC(N3CCC(C(=O)N4CCOCC4)CC3)CC2)c(F)c1	5.73
NNC(=O)c1cc2c(s1)-c1cc(Cl)ccc1SC2	10.8
COc1ccc(C/C(C)=N\NC(=O)c2c[nH]c3ccccc23)cc1OC	9.41
COc1ccc(-n2cnc3cc(C(=O)NC4CCCC4)ccc32)cc1	-3.74
